Positions count from the first letter of the chain named. The list shows a part of the results.
T1: RBFOX1 RRM RbFoxmut (Fox-RRM*) (Homo sapiens, UniProt Q9NWB1 109-208, R118D;E147R;N151S;E152T)
T1 sequence: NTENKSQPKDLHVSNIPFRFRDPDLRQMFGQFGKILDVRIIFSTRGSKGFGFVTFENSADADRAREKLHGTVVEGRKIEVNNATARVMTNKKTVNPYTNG

B1: AUCGGAC (DNA:RNA)
RNA: GGGAGACCGGAAUUCAGAUUGUCCAUCGGACUUAAAUCCCGUCGUAGCCACCA
DNA 1: CAATCTGAATTCCGGTCTCCC
DNA 2: TGGTGGCTACGACGGGATT
B2: CCCAACU (DNA:RNA)
RNA: B1 RNA with A25C, U26C, G28A, G29A, A30C, C31U
DNA 1: CAATCTGAATTCCGGTCTCCC
DNA 2: TGGTGGCTACGACGGGATT
B3: CGGCACG (DNA:RNA)
RNA: GGGAGACCGGAAUUCAGAUUGUCCCGGCACGUUAAAUCCCGUCGUAGCCACCA
DNA 1: CAATCTGAATTCCGGTCTCCC
DNA 2: TGGTGGCTACGACGGGATT
B4: UGCAUCU (DNA:RNA)
RNA: B3 RNA with C25U, G27C, C28A, A29U, G31U
DNA 1: CAATCTGAATTCCGGTCTCCC
DNA 2: TGGTGGCTACGACGGGATT
B5: GGGGCAC (DNA:RNA)
RNA: B1 RNA with A25G, U26G, C27G, G29C
DNA 1: CAATCTGAATTCCGGTCTCCC
DNA 2: TGGTGGCTACGACGGGATT
B6: CCAGGCU (DNA:RNA)
RNA: B1 RNA with A25C, U26C, C27A, A30C, C31U
DNA 1: CAATCTGAATTCCGGTCTCCC
DNA 2: TGGTGGCTACGACGGGATT
B7: CCGUUUA (DNA:RNA)
RNA: B3 RNA with G26C, C28U, A29U, C30U, G31A
DNA 1: CAATCTGAATTCCGGTCTCCC
DNA 2: TGGTGGCTACGACGGGATT
B8: GUGGAAA (DNA:RNA)
RNA: B1 RNA with A25G, C27G, G29A, C31A
DNA 1: CAATCTGAATTCCGGTCTCCC
DNA 2: TGGTGGCTACGACGGGATT
B9: ACCGCCU (DNA:RNA)
RNA: B1 RNA with U26C, G29C, A30C, C31U
DNA 1: CAATCTGAATTCCGGTCTCCC
DNA 2: TGGTGGCTACGACGGGATT
B10: UUGCCAC (DNA:RNA)
RNA: B1 RNA with A25U, C27G, G28C, G29C
DNA 1: CAATCTGAATTCCGGTCTCCC
DNA 2: TGGTGGCTACGACGGGATT
B11: GAACAAC (DNA:RNA)
RNA: B1 RNA with A25G, U26A, C27A, G28C, G29A
DNA 1: CAATCTGAATTCCGGTCTCCC
DNA 2: TGGTGGCTACGACGGGATT
B12: CUUUUAC (DNA:RNA)
RNA: B1 RNA with A25C, C27U, G28U, G29U
DNA 1: CAATCTGAATTCCGGTCTCCC
DNA 2: TGGTGGCTACGACGGGATT
B13: CUUCACA (DNA:RNA)
RNA: B3 RNA with G26U, G27U, G31A
DNA 1: CAATCTGAATTCCGGTCTCCC
DNA 2: TGGTGGCTACGACGGGATT
B14: CAUUGGU (DNA:RNA)
RNA: B1 RNA with A25C, U26A, C27U, G28U, A30G, C31U
DNA 1: CAATCTGAATTCCGGTCTCCC
DNA 2: TGGTGGCTACGACGGGATT
B15: CACCCAU (DNA:RNA)
RNA: B1 RNA with A25C, U26A, G28C, G29C, C31U
DNA 1: CAATCTGAATTCCGGTCTCCC
DNA 2: TGGTGGCTACGACGGGATT
B16: GACUCGU (DNA:RNA)
RNA: B1 RNA with A25G, U26A, G28U, G29C, A30G, C31U
DNA 1: CAATCTGAATTCCGGTCTCCC
DNA 2: TGGTGGCTACGACGGGATT
B17: GGGCGAA (DNA:RNA)
RNA: B3 RNA with C25G, A29G, C30A, G31A
DNA 1: CAATCTGAATTCCGGTCTCCC
DNA 2: TGGTGGCTACGACGGGATT
B18: GCAGCUC (DNA:RNA)
RNA: B1 RNA with A25G, U26C, C27A, G29C, A30U
DNA 1: CAATCTGAATTCCGGTCTCCC
DNA 2: TGGTGGCTACGACGGGATT
B19: CUAUUGU (DNA:RNA)
RNA: B1 RNA with A25C, C27A, G28U, G29U, A30G, C31U
DNA 1: CAATCTGAATTCCGGTCTCCC
DNA 2: TGGTGGCTACGACGGGATT
B20: AGCAAUU (DNA:RNA)
RNA: B1 RNA with U26G, G28A, G29A, A30U, C31U
DNA 1: CAATCTGAATTCCGGTCTCCC
DNA 2: TGGTGGCTACGACGGGATT
B21: GCUAGCC (DNA:RNA)
RNA: B1 RNA with A25G, U26C, C27U, G28A, A30C
DNA 1: CAATCTGAATTCCGGTCTCCC
DNA 2: TGGTGGCTACGACGGGATT
B22: UCUCCCC (DNA:RNA)
RNA: B3 RNA with C25U, G26C, G27U, A29C, G31C
DNA 1: CAATCTGAATTCCGGTCTCCC
DNA 2: TGGTGGCTACGACGGGATT
B23: GCGUGAU (DNA:RNA)
RNA: B1 RNA with A25G, U26C, C27G, G28U, C31U
DNA 1: CAATCTGAATTCCGGTCTCCC
DNA 2: TGGTGGCTACGACGGGATT
B24: GUUUACU (DNA:RNA)
RNA: B3 RNA with C25G, G26U, G27U, C28U, G31U
DNA 1: CAATCTGAATTCCGGTCTCCC
DNA 2: TGGTGGCTACGACGGGATT
B25: CUAUCCG (DNA:RNA)
RNA: B3 RNA with G26U, G27A, C28U, A29C
DNA 1: CAATCTGAATTCCGGTCTCCC
DNA 2: TGGTGGCTACGACGGGATT
B26: GUUGGGU (DNA:RNA)
RNA: B1 RNA with A25G, C27U, A30G, C31U
DNA 1: CAATCTGAATTCCGGTCTCCC
DNA 2: TGGTGGCTACGACGGGATT
B27: CAGGCAA (DNA:RNA)
RNA: B1 RNA with A25C, U26A, C27G, G29C, C31A
DNA 1: CAATCTGAATTCCGGTCTCCC
DNA 2: TGGTGGCTACGACGGGATT
B28: GGGUAUG (DNA:RNA)
RNA: B3 RNA with C25G, C28U, C30U
DNA 1: CAATCTGAATTCCGGTCTCCC
DNA 2: TGGTGGCTACGACGGGATT
B29: AUGUAGA (DNA:RNA)
RNA: B1 RNA with C27G, G28U, G29A, A30G, C31A
DNA 1: CAATCTGAATTCCGGTCTCCC
DNA 2: TGGTGGCTACGACGGGATT
B30: GCUUCAU (DNA:RNA)
RNA: B1 RNA with A25G, U26C, C27U, G28U, G29C, C31U
DNA 1: CAATCTGAATTCCGGTCTCCC
DNA 2: TGGTGGCTACGACGGGATT
B31: CUUACGG (DNA:RNA)
RNA: B3 RNA with G26U, G27U, C28A, A29C, C30G
DNA 1: CAATCTGAATTCCGGTCTCCC
DNA 2: TGGTGGCTACGACGGGATT

Each binder was assayed against T1, RBFOX1 RRM RbFoxmut (Fox-RRM*) (assay: EMSA; HiTS-Eq, 1 nM pool, 10 min; buffer printed only for the single-RNA assays: 10 mM Tris pH 7.5, 150 mM NaCl, 3.4 mM EDTA, 0.001% NP-40, 30 C). Settings: tags: His6 N-terminal (pET28a); label: 5' 32P.
How it was run: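 These values rest on relative association constants, computed from read-count changes of each RNA species versus the control reaction and normalised to the cognate motif. Reads came from free RNA recovered by 8% native PAGE after purified RbFox RRM (wild type or mutant) at increasing concentrations was equilibrated for 10 min in 50 µL with 1 nM of a 5′-radiolabelled pool with 7 randomized nucleotides and DNA-annealed flanks.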
For B1, the binding signal was 0.0703 KA relative to UGCAUGU.
With B2 the binding signal was 0.0528 KA relative to UGCAUGU.
With B3 the binding signal was 0.264 KA relative to UGCAUGU.
With B4 the binding signal was 0.727 KA relative to UGCAUGU.
B5 was tested, and the binding signal was 0.0742 KA relative to UGCAUGU.
With B6 the binding signal was 0.0795 KA relative to UGCAUGU.
In the case of B7, the binding signal is reported as 0.0885 KA relative to UGCAUGU.
For B8, the binding signal was 0.112 KA relative to UGCAUGU.
In the case of B9, the binding signal is reported as 0.0816 KA relative to UGCAUGU.
In the case of B10, the binding signal is reported as 0.0642 KA relative to UGCAUGU.
For B11, the binding signal was 0.0447 KA relative to UGCAUGU.
For B12, the binding signal was 0.0922 KA relative to UGCAUGU.
In the case of B13, the binding signal is reported as 0.0931 KA relative to UGCAUGU.
B14 was tested, and the binding signal was 0.154 KA relative to UGCAUGU.
In the case of B15, the binding signal is reported as 0.103 KA relative to UGCAUGU.
In the case of B16, the binding signal is reported as 0.133 KA relative to UGCAUGU.
B17 was tested, and the binding signal was 0.103 KA relative to UGCAUGU.
For B18, the binding signal was 0.0411 KA relative to UGCAUGU.
With B19 the binding signal was 0.146 KA relative to UGCAUGU.
For B20, the binding signal was 0.0706 KA relative to UGCAUGU.
For B21, the binding signal was 0.125 KA relative to UGCAUGU.
With B22 the binding signal was 0.064 KA relative to UGCAUGU.
In the case of B23, the binding signal is reported as 0.136 KA relative to UGCAUGU.
With B24 the binding signal was 0.115 KA relative to UGCAUGU.
With B25 the binding signal was 0.0597 KA relative to UGCAUGU.
For B26, the binding signal was 0.115 KA relative to UGCAUGU.
In the case of B27, the binding signal is reported as 0.0621 KA relative to UGCAUGU.
For B28, the binding signal was 0.93 KA relative to UGCAUGU.
With B29 the binding signal was 0.152 KA relative to UGCAUGU.
In the case of B30, the binding signal is reported as 0.101 KA relative to UGCAUGU.
With B31 the binding signal was 0.0934 KA relative to UGCAUGU.
